From PMC7819943, “Rice protein-binding microarrays: a tool to detect cis-acting elements near promoter regions in rice”
The list shows a part of the results.

These sequences were tested against T1, OsWOX13 (Oryza sativa, UniProt Q5QMM3 1-267) (assay: protein-binding microarray (RPBM); PBS, 2% BSA, 51.3 ng/ul salmon testes DNA, 50 uM zinc acetate, 200 nM TF, 25 C, 1 h; high values mean tight binding). Conditions: protein: recombinant; tags: N-terminal polyhistidine and DsRed monomer fusion (pET32a); label: CyDye5-dUTP incorporated in the synthesized complementary strand; 3' TTTTT single-stranded linker to array surface; dsDNA, one strand shown.
T1 sequence: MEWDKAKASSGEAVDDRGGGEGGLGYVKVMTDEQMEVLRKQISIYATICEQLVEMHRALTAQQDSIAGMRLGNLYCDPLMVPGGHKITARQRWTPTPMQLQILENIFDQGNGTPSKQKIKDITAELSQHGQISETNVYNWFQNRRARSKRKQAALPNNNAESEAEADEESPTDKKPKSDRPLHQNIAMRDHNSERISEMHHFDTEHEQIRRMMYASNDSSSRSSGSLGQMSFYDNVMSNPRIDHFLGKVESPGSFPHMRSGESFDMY
In short: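 The binding signal is fluorescence intensity per feature, in arbitrary units, read on an Axon 4000B scanner. Polyhistidine- and DsRed-tagged transcription factors (N-terminal fusions) from E. coli BL21-CodonPlus were purified on Ni–NTA and applied at 200 nM for 1 h at 25 °C to a double-stranded, BSA-blocked custom Agilent array in buffer with 50 µM zinc acetate.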

**Q.** How did the binding signal turn out when “TGTGATAGAAAATGCAGTTTTACTCAGTACTTTACCAACTCGGAGTCACCTAGTGCAG” was run?
**A.** 6890 fluorescence intensity (a.u.)

**Q.** With “AGGGAACATTCCAATCAATTATTCGGCTGCGAAAAGGCAACGGAGTCACCTAGTGCAG” as the sequence, how does the binding signal read?
**A.** 14000 fluorescence intensity (a.u.)

**Q.** How did the binding signal turn out when “AAGTCTAGAACAATTAATCAAATAAATTGTGTAGTGCTGACGGAGTCACCTAGTGCAG” was run?
**A.** 11700 fluorescence intensity (a.u.)

**Q.** How did the binding signal turn out when “GAGTGAATGGATGCAAATTAACAGACAAATTAACAGAGAGCGGAGTCACCTAGTGCAG” was run?
**A.** 18000 fluorescence intensity (a.u.)

**Q.** With “CCAAACAAACAAACAAACAATAATGCCAATCAAACCTCACCGGAGTCACCTAGTGCAG” as the sequence, how does the binding signal read?
**A.** 5050 fluorescence intensity (a.u.)

**Q.** Which binding signal does the source give for “TTAAGATAGAGGAAACATTGATTGTATGCATGCTATATATCGGAGTCACCTAGTGCAG” here?
**A.** 3750 fluorescence intensity (a.u.)

**Q.** For “GGGTTTAGGTTGATTGCCCTTCCCTTGCACGCAAAGATGCCGGAGTCACCTAGTGCAG”, which binding signal is on record?
**A.** 10200 fluorescence intensity (a.u.)

**Q.** With “AGTATTAATTATGATTGTTGATCGAATTCGTCAATGGCAACGGAGTCACCTAGTGCAG” as the sequence, how does the binding signal read?
**A.** 39800 fluorescence intensity (a.u.)

**Q.** “TAGTGATTAGCCGAGTCTTGCACAAGATTAGGAGTAGGAACGGAGTCACCTAGTGCAG” was tested. Which binding signal did it give?
**A.** 17200 fluorescence intensity (a.u.)

**Q.** How did the binding signal turn out when “AAGAATTGATGACCTCAGCCTTCAACGTTACTTGAAATTCCGGAGTCACCTAGTGCAG” was run?
**A.** 6420 fluorescence intensity (a.u.)

**Q.** Which binding signal does the source give for “AATTAGAATTCAATTAAAATCTAAATAACTCAAAAGGTCGCGGAGTCACCTAGTGCAG” here?
**A.** 10100 fluorescence intensity (a.u.)

**Q.** Which binding signal does the source give for “GGCAATTAGTTGCATTAATATAGTAGTTTATAATTGCAAGCGGAGTCACCTAGTGCAG” here?
**A.** 6660 fluorescence intensity (a.u.)

**Q.** For “ACAAGTGATTATATAGTGATAATGCAGTAATGTAGTGGAGCGGAGTCACCTAGTGCAG”, which binding signal is on record?
**A.** 14300 fluorescence intensity (a.u.)

**Q.** Which binding signal does the source give for “TTCTTCTCAATCAGAGTCAACTGACCAACACATAAGCCCACGGAGTCACCTAGTGCAG” here?
**A.** 11600 fluorescence intensity (a.u.)

**Q.** How did the binding signal turn out when “ACCAAACAATTGTCCGATTGATCAGCATGCTCTGACCTGACGGAGTCACCTAGTGCAG” was run?
**A.** 6020 fluorescence intensity (a.u.)

**Q.** With “TTAAGATAATCTATAATATTAAATTACTAGTGGATAATGACGGAGTCACCTAGTGCAG” as the sequence, how does the binding signal read?
**A.** 4680 fluorescence intensity (a.u.)

**Q.** How did the binding signal turn out when “GGAGTAGAATTGATAGTGGATAATATTGTAATCAAGGAAACGGAGTCACCTAGTGCAG” was run?
**A.** 4920 fluorescence intensity (a.u.)

**Q.** Which binding signal does the source give for “AACAGTAGTTCATGGTGGTGATTGGTGAAGGCTGATTGTGCGGAGTCACCTAGTGCAG” here?
**A.** 3720 fluorescence intensity (a.u.)

**Q.** With “CGTCACAAATTAAGGCATCCTTCTCTACGTATCTACACTGCGGAGTCACCTAGTGCAG” as the sequence, how does the binding signal read?
**A.** 4680 fluorescence intensity (a.u.)

**Q.** “GTGAATTAGACTAAAATAGCATTCACCCGTTGTAACGCATCGGAGTCACCTAGTGCAG” was tested. Which binding signal did it give?
**A.** 6510 fluorescence intensity (a.u.)

**Q.** For “CCATATATAATTGAAATTGCTTTTAACTCGTTGCAACGCACGGAGTCACCTAGTGCAG”, which binding signal is on record?
**A.** 27100 fluorescence intensity (a.u.)

**Q.** How did the binding signal turn out when “GGTGAATTGAAACATTATTTTGTAACAAATCACCCACATACGGAGTCACCTAGTGCAG” was run?
**A.** 8020 fluorescence intensity (a.u.)

**Q.** Which binding signal does the source give for “GACTTAGATTTGAAGAGATCCGTCACTTGAAATCTACCCCCGGAGTCACCTAGTGCAG” here?
**A.** 3720 fluorescence intensity (a.u.)

**Q.** With “TACACGCTCACGCACGAAGTGATTGATAATAGCACACATTCGGAGTCACCTAGTGCAG” as the sequence, how does the binding signal read?
**A.** 6990 fluorescence intensity (a.u.)

**Q.** Which binding signal does the source give for “TGTCGTGATTAAACCATTAATTAATAATAATTCCAGGTTCCGGAGTCACCTAGTGCAG” here?
**A.** 48500 fluorescence intensity (a.u.)

**Q.** With “GTTGATGAGAAGAACCATGGTGCTATACAAGGTACCATTGCGGAGTCACCTAGTGCAG” as the sequence, how does the binding signal read?
**A.** 6210 fluorescence intensity (a.u.)

**Q.** How did the binding signal turn out when “CCTCGTTAACTGCAACCCATCGATTGCCACATCTACACCTCGGAGTCACCTAGTGCAG” was run?
**A.** 8360 fluorescence intensity (a.u.)

**Q.** “AATTAATTAACCCGGTAGGTTAGTATAGCACTCTGCAGTTCGGAGTCACCTAGTGCAG” was tested. Which binding signal did it give?
**A.** 23900 fluorescence intensity (a.u.)

**Q.** “TTTAATATGTTAATGGTGTTGGATAGATATTGTAGCTACTCGGAGTCACCTAGTGCAG” was tested. Which binding signal did it give?
**A.** 3750 fluorescence intensity (a.u.)

**Q.** With “AATGATAAATTGAACAACTAATATGAACATATTAAAACGTCGGAGTCACCTAGTGCAG” as the sequence, how does the binding signal read?
**A.** 30500 fluorescence intensity (a.u.)

**Q.** How did the binding signal turn out when “AGTTGACAGGCTGCTCGTAAATACAAGCGGCCAATGCTGACGGAGTCACCTAGTGCAG” was run?
**A.** 25700 fluorescence intensity (a.u.)

**Q.** How did the binding signal turn out when “CAATGGTAAATTTATCCAGTCCAAAGTGAAAATATATGGTCGGAGTCACCTAGTGCAG” was run?
**A.** 3960 fluorescence intensity (a.u.)

**Q.** Which binding signal does the source give for “TTGTAATGAGATTTTGGTTCAGTGCATGTGATCTTCTGTGCGGAGTCACCTAGTGCAG” here?
**A.** 3290 fluorescence intensity (a.u.)

**Q.** “TTGACAAATTTTCTAAGTTTGCTCATTTCATTCCTTTAGCCGGAGTCACCTAGTGCAG” was tested. Which binding signal did it give?
**A.** 6030 fluorescence intensity (a.u.)

**Q.** How did the binding signal turn out when “GTACTATTCGGCATCAATCACGGCATGTTATGGTCCGTGCCGGAGTCACCTAGTGCAG” was run?
**A.** 10600 fluorescence intensity (a.u.)

**Q.** With “GGATGAACTGTCAGCATTTTGATTAGTTTTAAAATGTCAGCGGAGTCACCTAGTGCAG” as the sequence, how does the binding signal read?
**A.** 8740 fluorescence intensity (a.u.)

**Q.** Which binding signal does the source give for “CGAATCTGATTTGGGTTTTGGGCCTTGTAATTGTGTCGTGCGGAGTCACCTAGTGCAG” here?
**A.** 10400 fluorescence intensity (a.u.)

**Q.** With “TGGGACCTAAATTGAACTTATTTCCTATGTACGAGTGAGACGGAGTCACCTAGTGCAG” as the sequence, how does the binding signal read?
**A.** 11000 fluorescence intensity (a.u.)

**Q.** “TCACCAAAATCAACATGAACTGATCAGTTCTTGTCCAGTACGGAGTCACCTAGTGCAG” was tested. Which binding signal did it give?
**A.** 10900 fluorescence intensity (a.u.)

**Q.** “TTTCCACATGAATCTCTTAATCAATCACTGATTCCAGATACGGAGTCACCTAGTGCAG” was tested. Which binding signal did it give?
**A.** 7150 fluorescence intensity (a.u.)

**Q.** How did the binding signal turn out when “TATTGGAAAATAAACAAAATTGATTAAACATGTTCTATTTCGGAGTCACCTAGTGCAG” was run?
**A.** 18700 fluorescence intensity (a.u.)

**Q.** For “TTCTAATAATAATGATTTAAACATTATGTATCTCCAAATTCGGAGTCACCTAGTGCAG”, which binding signal is on record?
**A.** 10900 fluorescence intensity (a.u.)
